{
  "source": "paper PMC4336329",
  "about": "(PLoS ONE, 2015)",
  "note": "Out of some 310,000 compounds screened, about 14,000 (4.5%) showed an effect of 50% or more. Effects have a minus sign here. Some of the results follow.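 Further: peak tail current of the secondary pulse compared with the same well before compound.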",
  "data": [
    {"target": "human ether-à-go-go-related gene (hERG) potassium channel (human, UniProt Q12809)", "sequence (Q12809 whole entry, looked up)": "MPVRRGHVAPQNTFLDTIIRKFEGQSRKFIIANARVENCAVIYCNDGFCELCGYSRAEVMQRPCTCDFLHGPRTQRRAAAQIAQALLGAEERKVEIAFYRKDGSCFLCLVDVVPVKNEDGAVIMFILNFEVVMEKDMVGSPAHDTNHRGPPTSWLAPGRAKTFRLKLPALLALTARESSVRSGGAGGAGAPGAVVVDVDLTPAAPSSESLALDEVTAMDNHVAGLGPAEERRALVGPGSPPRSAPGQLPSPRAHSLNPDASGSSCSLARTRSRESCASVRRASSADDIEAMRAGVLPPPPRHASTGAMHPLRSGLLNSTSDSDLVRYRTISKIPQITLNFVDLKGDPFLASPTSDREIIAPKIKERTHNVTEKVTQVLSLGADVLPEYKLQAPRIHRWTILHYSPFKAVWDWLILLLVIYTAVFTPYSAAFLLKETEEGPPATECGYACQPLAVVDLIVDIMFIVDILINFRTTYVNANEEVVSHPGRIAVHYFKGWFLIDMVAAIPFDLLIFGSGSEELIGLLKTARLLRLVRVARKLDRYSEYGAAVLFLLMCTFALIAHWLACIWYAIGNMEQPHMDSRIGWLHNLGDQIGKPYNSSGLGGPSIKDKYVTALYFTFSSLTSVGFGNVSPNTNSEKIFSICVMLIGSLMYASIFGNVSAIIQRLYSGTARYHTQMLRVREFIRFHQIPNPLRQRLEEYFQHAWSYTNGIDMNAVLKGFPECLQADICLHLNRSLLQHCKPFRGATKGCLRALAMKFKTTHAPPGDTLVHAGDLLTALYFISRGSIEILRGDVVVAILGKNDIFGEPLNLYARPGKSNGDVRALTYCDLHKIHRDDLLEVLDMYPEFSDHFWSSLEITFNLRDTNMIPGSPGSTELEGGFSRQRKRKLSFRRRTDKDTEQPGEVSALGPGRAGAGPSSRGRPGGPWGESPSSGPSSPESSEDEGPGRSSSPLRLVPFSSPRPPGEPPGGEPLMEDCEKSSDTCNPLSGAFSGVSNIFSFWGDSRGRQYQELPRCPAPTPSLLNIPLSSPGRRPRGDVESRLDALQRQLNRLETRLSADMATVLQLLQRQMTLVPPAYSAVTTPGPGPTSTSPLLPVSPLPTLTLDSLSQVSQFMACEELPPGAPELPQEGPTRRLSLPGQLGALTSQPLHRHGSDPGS", "assay": "primary screen, population patch clamp on CHO cells stably expressing hERG", "units": {"hERG current change (%, negative = inhibition) at 10uM": "%"}, "values": [
      {"smiles": "Br.Clc1ccc(-c2cn3cc(Br)ccc3n2)cc1Cl", "hERG current change (%, negative = inhibition) at 10uM": 8.27},
      {"smiles": "Cc1ccc(C)c(Nc2nn3c(=O)c4ccc(C(=O)NCc5cccnc5)cc4nc3s2)c1", "hERG current change (%, negative = inhibition) at 10uM": 14.3},
      {"smiles": "COc1cccc(OCCn2cccc2/C=C2/C(=N)N3OC(C)=CC3=NC2=O)c1", "hERG current change (%, negative = inhibition) at 10uM": -23.5},
      {"smiles": "COc1ccc(N(CC(=O)N/N=C/c2ccc(-c3ccc([N+](=O)[O-])cc3)o2)S(=O)(=O)c2ccc(C)cc2)cc1Cl", "hERG current change (%, negative = inhibition) at 10uM": 9.59},
      {"smiles": "CC(Oc1ccc2c(-c3ccccc3)cc(=O)oc2c1)C(=O)O", "note": "(stereo not shown)", "hERG current change (%, negative = inhibition) at 10uM": 1.64},
      {"smiles": "CC12CN(Cc3ccccc3)CC(C)(CN(Cc3ccccc3)C1)C2=O", "hERG current change (%, negative = inhibition) at 10uM": 11},
      {"smiles": "O=C(NNC(=S)NCc1ccco1)C(c1ccccc1)c1ccccc1", "hERG current change (%, negative = inhibition) at 10uM": 5.44},
      {"smiles": "COc1ccc(-n2c(=O)c3ccccc3n(CC(=O)Nc3ccccc3OC)c2=O)cc1", "hERG current change (%, negative = inhibition) at 10uM": 0.109},
      {"smiles": "COc1cc(C2CC(=O)Oc3c(C(CCN4CCCC(C)C4)c4ccc(N(C)C)cc4)c(OC)cc(OC)c32)cc(OC)c1OC", "note": "(stereo not shown)", "hERG current change (%, negative = inhibition) at 10uM": -10.7},
      {"smiles": "O=C(CSc1ncn[nH]1)NC1CC2CCC1C2", "note": "(stereo not shown)", "hERG current change (%, negative = inhibition) at 10uM": 19.9},
      {"smiles": "OCCNc1cc(-n2nc(-c3ccccc3)cc2-c2ccccc2)ncn1", "hERG current change (%, negative = inhibition) at 10uM": -26.8},
      {"smiles": "Nc1c(C(=O)OCc2ccccc2)c2nc3ccccc3nc2n1Cc1cccs1", "hERG current change (%, negative = inhibition) at 10uM": -2.49},
      {"smiles": "Cc1cc(OC(=O)c2cc(Cl)ccc2Cl)c([N+](=O)[O-])c(=O)[nH]1", "hERG current change (%, negative = inhibition) at 10uM": 7.45},
      {"smiles": "CN(C)c1ccsc1C(=O)NNS(=O)(=O)c1ccc(Cl)cc1", "hERG current change (%, negative = inhibition) at 10uM": -4.68},
      {"smiles": "Cc1ccc(C2(c3ccccc3)NC(=O)N(CC(=O)NCc3ccco3)C2=O)cc1C", "note": "(stereo not shown)", "hERG current change (%, negative = inhibition) at 10uM": -50.4},
      {"smiles": "O=C(CSc1ncc(C(F)(F)F)cc1Cl)N1CCN(S(=O)(=O)c2ccc(Cl)cc2)CC1", "hERG current change (%, negative = inhibition) at 10uM": 6.74},
      {"smiles": "Cc1cc(C)n2nc(CC#N)c(C#N)c2n1", "hERG current change (%, negative = inhibition) at 10uM": 12},
      {"smiles": "CN(C)N1C(N)=C(C#N)C(c2ccsc2)C2=C1CCCC2=O", "note": "(stereo not shown)", "hERG current change (%, negative = inhibition) at 10uM": -22.7},
      {"smiles": "CCCCn1nc2cc(C(=O)NCc3cc(C(F)(F)F)cc(C(F)(F)F)c3)ccc2c1OC", "hERG current change (%, negative = inhibition) at 10uM": 12.6},
      {"smiles": "Cc1cccc(NC(=O)c2ccc(C)c(S(=O)(=O)N3CCCCC3)c2)n1", "hERG current change (%, negative = inhibition) at 10uM": -36.7},
      {"smiles": "Cc1cccc(OCCCC(=O)Nc2nnc(C3CCCO3)s2)c1C", "note": "(stereo not shown)", "hERG current change (%, negative = inhibition) at 10uM": 16.1},
      {"smiles": "O=C(NNC(=O)C1CCCCC1)c1ccc(Br)cc1", "hERG current change (%, negative = inhibition) at 10uM": 12.3},
      {"smiles": "O=C(N/N=C/C(Cl)=C/c1ccc([N+](=O)[O-])cc1)C(=O)Nc1cccc(C(=O)O)c1", "hERG current change (%, negative = inhibition) at 10uM": 12.4},
      {"smiles": "Cc1nnsc1Sc1cccc(C(F)(F)F)c1", "hERG current change (%, negative = inhibition) at 10uM": 10.5},
      {"smiles": "O=C(Nc1ccc(Cl)c(Cl)c1)N1CC=C(c2ccccc2)CC1", "hERG current change (%, negative = inhibition) at 10uM": 6.12},
      {"smiles": "Cc1ccc(NC(=O)[C@H](Cc2c[nH]c3ccccc23)NC(=O)[C@@H]2Cc3ccccc3CN2)c(C)c1", "hERG current change (%, negative = inhibition) at 10uM": -30.1},
      {"smiles": "Cn1ncc(Br)c1C(=O)Nc1ccc(F)cc1F", "hERG current change (%, negative = inhibition) at 10uM": 6.1},
      {"smiles": "CN(C)c1ccc(N=Nc2ccccc2C(=O)OCC(=O)NCC2CCCCC2)cc1", "hERG current change (%, negative = inhibition) at 10uM": 6.61},
      {"smiles": "O=C(/C=C/Nc1ccc([N+](=O)[O-])cc1)c1ccc(Br)cc1", "hERG current change (%, negative = inhibition) at 10uM": 9.65},
      {"smiles": "COc1ccccc1C(=O)N=c1sc2c(C)ccc(OC)c2n1C", "hERG current change (%, negative = inhibition) at 10uM": 14.4},
      {"smiles": "NNC(=S)NCCc1ccccc1", "hERG current change (%, negative = inhibition) at 10uM": 20.1},
      {"smiles": "O=C(NCc1ccccn1)c1ccc(Cl)c(S(=O)(=O)N2CCCCCC2)c1", "hERG current change (%, negative = inhibition) at 10uM": -64.5},
      {"smiles": "Cc1ccccc1N1CCN(Cc2c(C#N)c3ccccc3n2C)CC1", "hERG current change (%, negative = inhibition) at 10uM": 9.54},
      {"smiles": "COc1ccc(S(=O)(=O)N2CCC(C(=O)NCCC(=O)Nc3cccc(Cl)c3)CC2)cc1", "hERG current change (%, negative = inhibition) at 10uM": -2.63},
      {"smiles": "COCCN1C(=O)N(c2ccc(Cl)cc2)C(=O)C1CC(=O)Nc1cc(OC)cc(OC)c1", "note": "(stereo not shown)", "hERG current change (%, negative = inhibition) at 10uM": 1.59},
      {"smiles": "O=C(O)CC1C(=O)OCN1C(=O)OCc1ccccc1", "note": "(stereo not shown)", "hERG current change (%, negative = inhibition) at 10uM": 9.38},
      {"smiles": "Cc1[nH]n(-c2cccc(Cl)c2)c(=O)c1-c1ccccc1", "hERG current change (%, negative = inhibition) at 10uM": 17.1},
      {"smiles": "CCCC(=O)NC(C)c1nc2ccccc2n1C(C)C", "note": "(stereo not shown)", "hERG current change (%, negative = inhibition) at 10uM": 8.05},
      {"smiles": "c1ccc(-c2cc3ccccc3[nH]2)cc1", "hERG current change (%, negative = inhibition) at 10uM": 21},
      {"smiles": "CC(=O)Nc1ccc(NC(=O)c2cccc(Oc3ccccc3)c2)cc1", "hERG current change (%, negative = inhibition) at 10uM": 8.84},
      {"smiles": "COc1cccc(C(=O)O/N=C(\\N)c2ccc([N+](=O)[O-])cc2)c1OC", "hERG current change (%, negative = inhibition) at 10uM": -10.7},
      {"smiles": "Cc1ccccc1NC(=S)N(Cc1cccnc1)Cc1ccco1", "hERG current change (%, negative = inhibition) at 10uM": -7.58},
      {"smiles": "C=CCNC(=O)c1c(O)c2cccc3c2n(c1=O)CCC3", "hERG current change (%, negative = inhibition) at 10uM": 16.9}
    ]}
  ]
}
